Among all 200,000 compounds or so, about 4,500 (2.2%) were called active. The shares of active, inactive and inconclusive entries below differ from those in the screen. The call rests on the fitted dose curve; in most records, active means well fitted inhibition curve with a large enough effect; inconclusive means small, poorly fitted or top-dose-only effect, or effect the other way; inactive means flat fitted curve, though single readings scatter. Potencies of inconclusive entries are doubtful fits and often do not repeat.
Target: Cruzipain (Trypanosoma cruzi) (UniProt P25779)
Sequence of UniProt P25779 (P25779 whole entry, looked up): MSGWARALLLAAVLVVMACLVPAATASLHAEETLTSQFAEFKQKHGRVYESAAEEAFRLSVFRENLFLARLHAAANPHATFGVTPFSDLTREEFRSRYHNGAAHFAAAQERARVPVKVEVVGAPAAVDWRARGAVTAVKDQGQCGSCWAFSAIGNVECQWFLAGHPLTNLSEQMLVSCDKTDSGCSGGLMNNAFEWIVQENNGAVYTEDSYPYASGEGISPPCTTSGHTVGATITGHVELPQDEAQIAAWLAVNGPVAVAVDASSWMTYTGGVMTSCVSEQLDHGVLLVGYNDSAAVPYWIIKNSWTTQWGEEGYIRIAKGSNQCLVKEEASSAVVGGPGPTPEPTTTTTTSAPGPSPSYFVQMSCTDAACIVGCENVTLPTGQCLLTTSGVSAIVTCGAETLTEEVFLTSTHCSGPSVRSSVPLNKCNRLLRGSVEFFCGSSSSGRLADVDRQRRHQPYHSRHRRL
Assay: qHTS Assay for Promiscuous and Specific Inhibitors of Cruzain (without detergent); further: nearly all actives have a fitted effect of over 40% in size;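 on max response, negative = inhibition: plate controls were enzyme without inhibitor for no effect and buffer without enzyme for full effect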
Details: purified cruzain, Z-FR-AMC fluorescence, no detergent
In short: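 Detergent-free condition (0.00005% Triton X-100) in acetate buffer pH 5.5 with DTT. 1.5 nM enzyme and compound were pre-mixed 15 min, then 2 uM Z-FR-AMC substrate added; reaction progress from fluorescence change between first and third reads (60 s).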
Potency means the concentration at half of the fitted maximal effect; tags describe the fitted curve by direction and shape.

Compound | Potency | max response, negative = inhibition
COc1ccc(-c2noc(COc3ccccc3OC)n2)cc1OC | inconclusive: 39.8 µM [activator, single point] | 
CCOC(=O)C1CCCN(S(=O)(=O)c2cc(-c3cc(C)no3)ccc2OC)C1 (centres undefined) | inconclusive: 31.6 µM [activator, single point] | 
COc1ccccc1NC(=O)CSc1ncc2c(n1)-c1ccccc1N(Cc1ccccc1C)S2(=O)=O | active: 7.94 µM | 
CCn1c2ccccc2c2cc(/C=N/n3c(C)nnc3C)ccc21 | inconclusive: 39.8 µM [activator, single point] | 
Fc1ccccc1/C=N/NC(=S)Nc1ccc(Cl)cc1Cl | active: 10 µM | 
CCCN(CCC)C(=O)c1cc2c(=O)n3cccc(C)c3nc2s1 | inconclusive: 39.8 µM [activator, single point] | 
COc1ccc(C(C(=O)NC2CCCCC2)N(C(=O)CCl)c2ccc(C)cc2)cc1 (centres undefined) | inconclusive: 39.8 µM [inhibitor, single point] | 
COCCn1c(CN(Cc2ccccc2)Cc2ccccc2)nc2c1c(=O)n(C)c(=O)n2C | inconclusive: 25.1 µM [activator, partial curve] | 
CCc1ccc2oc(C(=O)N(Cc3ccc(N(C)C)cc3)Cc3ccco3)c(C)c2c1 | inconclusive: 31.6 µM [inhibitor, single point] | 
CCNc1nc(SC)nc(N(C#N)CC(=O)OC)n1 | active: 12.6 µM | 
COC(=O)[C@H](Cc1ccccc1)NC(=O)O[C@@H]1Cc2cc(OC)ccc2O[C@H]1c1cccc(OC)c1 |  | inactive: -11.1%
COc1ccc(/C=C/C(=O)OCC(=O)c2c(C)[nH]c3ccccc23)cc1OC | inconclusive: 31.6 µM [activator, single point] | 
O=C(Cn1cc(C(=O)C2CCCCC2)c2ccccc21)Nc1ccccc1Cl |  | inactive: -10.1%
Cc1cc(C)cc(OCCSc2nc3ccc(NC(=O)c4cccs4)cc3s2)c1 | active: 20 µM | 
COc1ccc(CNC(=S)N/N=C/c2ccc(OC)c(OC)c2)cc1 |  | inactive: 10.3%
Cc1c(C(=O)N2CCC(C)CC2)sc2ncnc(N(C)c3ccccc3)c12 |  | inactive: -1.97%
O=C(NCc1ccc(F)cc1Cl)c1cc(=O)[nH]c2ccc(S(=O)(=O)N3CCCCC3)cc12 |  | inactive: -4.1%
CSc1ccccc1N=Cc1nc(-c2ccccc2)oc1O |  | inactive: -6.51%
COc1ccc(NC(=O)CCC2CCCCC2)cc1S(=O)(=O)N1CCCCC1 | inconclusive: 39.8 µM [activator, single point] | 
COc1ccccc1C1C=C(c2ccc(Cl)cc2)Nc2nc(N3C(=O)CCC3=O)nn21 (centres undefined) | inconclusive: 39.8 µM [activator, single point] | 
Cc1cccc2nc(-c3cccc(NC(=O)Cc4ccccc4)c3)cn12 | inconclusive: 39.8 µM [inhibitor, single point] | 
COc1cc(-c2nnc(Sc3ccc(C(F)(F)F)cc3[N+](=O)[O-])o2)cc(OC)c1OC | inconclusive: 25.1 µM [activator, single point] | 

Compound | Potency | max response, negative = inhibition
CCN(CC)C(=O)c1sc2c(c1C)c(=O)n(Cc1ccccc1)c(=O)n2Cc1ccccc1C | inconclusive: 39.8 µM [activator, single point] | 
COC(=O)C1C(=O)C2=C(CC1C)NC(C)=C(C(=O)OCCOc1ccccc1)C2c1ccc(C)o1 (centres undefined) | inconclusive: 39.8 µM [activator, single point] | 
COc1ccccc1N/N=C/c1ccc2c(c1)OCO2 | inconclusive: 31.6 µM [inhibitor, single point] | 
COc1ccc(N2CCN(C(=O)CSc3nc(-c4ccc(C(C)C)cc4)no3)CC2)cc1 |  | inactive: -14.8%
CCN(CC)C(=O)c1sc2c(c1C)c(=O)n(-c1ccc(C)c(C)c1)c(=O)n2Cc1cc(=O)n2ccccc2n1 | inconclusive: 39.8 µM [activator, single point] | 
O=C(c1cnn2c(C(F)F)cc(C3CC3)nc12)N1CCOCC1 |  | inactive: -1.39%
COc1ccc(-c2nc3scc(CCNS(=O)(=O)c4ccc(Oc5ccccc5)cc4)n3n2)cc1OC |  | inactive: -18.5%
CC1=C(/C=C/C(C)=C/C=C/C(C)=C/CO)C(C)(C)CCC1 | inconclusive: 39.8 µM [activator, single point] | 
Oc1ccc(N=C/C=C/c2ccc(Br)cc2)cc1-c1nc2ccccc2s1 | active: 31.6 µM | 
Brc1cccc(OCCCCN2CCCCC2)c1 |  | inactive: -6.05%
CCOC(=O)c1c(C)nc2c(c1-c1cc(OC)c(OC)c(OC)c1)C(=O)c1ccccc1-2 | inconclusive: 5.01 µM [activator, full curve] | 
CCC(Sc1nc2c(sc3ccccc32)c(=O)n1CCc1ccc(OC)c(OC)c1)C(=O)N(CC)CC (centres undefined) | inconclusive: 31.6 µM [activator, single point] | 
CCn1ncc(/C=C/C(=O)Nc2c(C)nn(Cc3ccc(Cl)cc3Cl)c2C)c1C | inconclusive: 31.6 µM [activator, single point] | 
N#C[C@H](c1ccccc1)N1CCCN([C@@H](C#N)c2ccccc2)C1c1ccccc1O (some centres undefined) |  | inactive: -0.842%
O=c1c2ccccc2nc(/C=C/c2cccc3ccccc23)n1-c1ccc(F)cc1F | inconclusive: 39.8 µM [inhibitor, single point] | 
C/C(=N\NC(=O)C1CC1(c1ccccc1)c1ccccc1)c1cccc([N+](=O)[O-])c1 (centres undefined) | inconclusive: 39.8 µM [inhibitor, single point] | 
Cc1cccc(-c2cc(C(=O)Nc3sc(C)c(C)c3C(N)=O)c3ccccc3n2)c1 | inconclusive: 31.6 µM [inhibitor, single point] | 
Cc1cccc(CN2C(=O)c3ccccc3Sc3ccc(C(=O)NCc4ccco4)cc32)c1 | inconclusive: 31.6 µM [inhibitor, single point] | 
CCS(=O)(=O)c1ncc(Cl)c(C(=O)N2CCN(c3ccc(OC)cc3)CC2)n1 |  | inactive: 6.35%
COc1ccc2c(CNCCc3ccc(SC)cc3)c(C(=O)O)n(Cc3ccc(F)cc3)c2c1 | inconclusive: 31.6 µM [inhibitor, single point] | 
Cc1cc(=O)oc2c(CN3CCN(C)CC3)c(O)c(Cl)cc12 | inconclusive: 39.8 µM [inhibitor, single point] | 
CCN(CC)c1ccc2cc(S(=O)(=O)c3ccc(Cl)cc3)c(=O)oc2c1 | inconclusive: 31.6 µM [inhibitor, single point] | 

Compound | Potency | max response, negative = inhibition
O=C(CSc1nnc(-c2cccc(S(=O)(=O)N3CCOCC3)c2)n1C1CCCCCC1)NCc1ccccc1 | inconclusive: 31.6 µM [activator, partial curve] | 
O=C(CN1C(=O)/C(=C\c2ccc(F)cc2)Oc2ccccc21)NCc1ccco1 | active: 25.1 µM | 
CC(C)C[C@@H](CC(=O)N[C@@H](CCC(=O)O)CC(=O)O)NC(=O)[C@@H]1CNCC[C@H]1NC(=O)C[C@H](CCCN)NC(=O)C[C@H](Cc1c[nH]c2ccccc12)NC(=O)[C@@H]1CNCC[C@H]1N |  | inactive: -13.5%
O=c1nc2s/c(=C\c3ccco3)c(=O)n2nc1Cc1ccc(F)cc1 | inconclusive: 31.6 µM [inhibitor, single point] | 
COC(=O)C1=C(C)N(C)C(=O)/C1=C\c1cccs1 |  | inactive: -1.04%
CC(C(=O)N1c2ccccc2Sc2ccccc21)n1nnc(-c2cccs2)n1 (centres undefined) | inconclusive: 39.8 µM [inhibitor, single point] | 
O=C(NC1CCCC1)c1ccc2c(=O)n(Cc3ccccc3)c(SCc3ccccc3F)nc2c1 |  | inactive: 0.948%
Cc1sc2nc(CSc3nnc(Cc4cccs4)n3C3CCCCC3)[nH]c(=O)c2c1C | inconclusive: 39.8 µM [inhibitor, single point] | 
COc1ccc(Cl)cc1-n1cc(-c2ccccc2)nc1SCC(=O)Nc1ccc(C)cc1 | inconclusive: 39.8 µM [inhibitor, single point] | 
Cc1cc2nc(SCC(=O)N(C)C)c3c(c2cc1C)CCCC3 | inconclusive: 39.8 µM [activator, single point] | 
CC(/C=C/c1ccccc1)=N/NC(=O)CNC(=O)c1ccc2c(c1)OCO2 | inconclusive: 39.8 µM [inhibitor, single point] | 
Cc1nnc(SCC(=O)n2c3c(c4ccccc42)CCCC3)s1 | inconclusive: 31.6 µM [activator, single point] | 
COc1ccc(NC(=O)CN2C(=O)COc3ccc(S(=O)(=O)N4CCOCC4)cc32)cc1 |  | inactive: 4.14%
CCn1cc(CNC(=O)c2cc(-c3ccc(C)cc3)nc3ccc(Br)cc23)c(C)n1 | inconclusive: 5.01 µM [activator, full curve] | 
CN(C)c1ccc(CN(C(=O)COc2ccc(Br)cc2)C2CCS(=O)(=O)C2)cc1 (centres undefined) | inconclusive: 31.6 µM [activator, single point] | 
CCn1c(SCC(=O)Nc2oc(-c3ccccc3)c(-c3ccccc3)c2C#N)nnc1-c1cc(OC)cc(OC)c1 | active: 7.94 µM | 
O=C(COc1ccc2ccccc2c1Br)N1CCOCC1 | inconclusive: 39.8 µM [activator, single point] | 
COc1ccc(C)cc1C(=O)CCC(=O)Nc1ccccc1N1CCOCC1 | inconclusive: 31.6 µM [activator, single point] | 
CCOc1ccc(Nc2nc(Cl)nc(N3CCN(c4ccc(OC)cc4)CC3)n2)cc1 | inconclusive: 39.8 µM [inhibitor, single point] | 
Cc1cccc(C(=O)N2CCc3cc(CNC(=O)c4cc5ccccc5[nH]4)ccc32)c1 | active: 31.6 µM | 

Source: PubChem BioAssay AID1476 (National Center for Advancing Translational Sciences (NCATS), 2009)
